# Laboratory results published in ChEMBL document CHEMBL4888484, “Replenishing the malaria drug discovery pipeline: Screening and hit evaluation of the MMV Hit Generation Library 1 (HGL1) against asexual blood stage Plasmodium falciparum ,using a nano luciferase reporter read-out” (2022).
# Among all 150,000 compounds or so, about 540 (0.36%) showed an effect of 50% or more. The list shows a part of the results.
# System: Plasmodium falciparum
# Assay: Primary screen in NF54 nanoGlo assay, in single point, at 2uM, 72h; a lower Z score goes with more inhibition
# Type: functional, Erythrocyte
# Conditions: timepoint 72 hour
Compound,% Inhibition [%],Z score
CCCN(C(=O)[C@H]1CCCN(C2CCN(Cc3cccnc3)CC2)C1)C1CCCC1,-5,0.47
Cc1ccc(CNC(=O)c2cc3c(s2)CCC3)cn1,13,-1.7
CC(C)(C)OC(=O)N1C2CCCC1CN(Cc1cc[nH]n1)C2,-6,0.75
COc1nccnc1O[C@H]1CCN(C(=O)c2cnc3ccccc3n2)C1,-2,0.25
Cc1c(CNCc2cc3ccc(F)cc3n(C)c2=O)cnn1C,-1,0.08
COCCN(C)[C@H]1CN(C(=O)c2ccc3c(c2)CCO3)C[C@@H]1O,-6,0.84
CC(C)Oc1ncccc1C(=O)NC1CCCC1CNS(C)(=O)=O (stereo unspecified),-7,0.66
CC(OC(=O)C1CC(=O)N(C2CCCC2)C1)C(=O)Nc1ccc(S(N)(=O)=O)cc1 (stereo unspecified),-2,0.33
Cc1cc(C)cc(CN2CCCN(c3ccc(NC(=O)Cc4cccs4)cc3)C2=O)c1,-7,1.39
CC(=O)NC[C@H]1CCCN(c2nc3c(s2)c(C)nn3C)C1,-10,1.68
O[C@@]1(C(F)(F)F)CCN(c2noc(-c3ccccc3)n2)C1,-1,0.16
COCC(=O)Nc1ccc(N(C)C)c(CN(C(=O)NC(C)C)[C@@H](C)c2ccccc2)c1,-15,2.85
CC(C)c1ccc(OC[C@H]2CN(C(=O)Cc3ccccc3)CCO2)cc1,-8,1.19
CCc1nnc(NC(=O)C2(C)CC2F)s1 (stereo unspecified),-1,0.16
CCCCN(C)C(=O)c1cc2c(n1C)CCN(Cc1cccc(F)c1)C2,-7,1.06
CCc1c2c(=O)n(-c3nc4ccccc4s3)[nH]c2cc(=O)n1CCCN1CCOCC1,81,-10.48
CN(C)c1ccnc(CNS(=O)(=O)c2ccccc2)n1,6,-0.96
Cc1nc(N2CCCC[C@@H]2C)c2c(C)c(C(=O)N(C)C3CCCCC3)sc2n1,-9,1.39
C[C@H]1CNC(=O)CCN1Cc1ccccc1Cn1cccn1,-2,0.37
C[C@@H](C(=O)NC1CC1)S(=O)(=O)c1ccc2ccccc2c1,-3,0.51
c1cn(CCCNc2nc(N3CCOCC3)c3nn[nH]c3n2)cn1,-8,1.25
N#Cc1ccc2c(c1)C1OCCCC1C(c1cccc(O)c1)N2 (stereo unspecified),-16,1.43

Compound,% Inhibition [%],Z score
CCC1CCC(C(=O)NCC(=O)N2CCn3cncc3C2)CC1 (stereo unspecified),-22,2.8
c1cncc(-c2nnc3n2CCNC3)c1,-8,1.07
CC[C@](C)(O)CNC(=O)c1cc(Cl)ccc1O,7,-1.12
CCOC(CCn1cc(CNC(=O)C(CC)CC)nn1)OCC,-10,1.56
Cc1ccc(-c2csc(-n3nc(C(F)(F)F)cc3-c3ccco3)n2)cc1,-32,3.77
C=C(C)Cn1c(CC(C)(C)O)nnc1N1CCN(C(C)=O)CC1,-7,1.38
COc1cccc(N2CCN(C(=O)c3ccc4c(c3)N(CC(=O)NC(C)C)C(=O)CO4)CC2)c1,-1,0.11
Fc1cncc(NCc2cscn2)c1,-10,1.98
O=C(c1cc[nH]n1)N1Cc2ccccc2-c2ccccc21,5,-0.74
NCC[C@H](NCc1cn(C2CCCC2)nc1-c1ccccn1)C(F)F,5,-1.03
C[C@@H](Cc1ccc(Br)cc1F)NS(C)(=O)=O,2,-0.36
O=C(NCc1nn(C2CCCC2)c(=O)c2ccccc12)c1ccc(F)cc1F,-20,2.58
CC(C)(C)OC(=O)N1CC[C@H]1c1noc(Cn2ccccc2=O)n1,-9,0.91
COc1c(F)ccc(-c2cn(CCS(C)(=O)=O)nn2)c1F,5,-0.69
CCc1nc(N2CC[C@@H](CO)[C@@H](O)C2)ncc1C,-14,1.4
Cc1ccc(C)c(S(=O)(=O)N2CCc3cc(S(=O)(=O)NC4CCCC4)ccc32)c1,-5,0.69
CCOc1ccc(CN2C[C@@H](CO)[C@H](NC(=O)C3CCC3)C2)cc1,-16,2.35
O=C(c1noc2ccc(S(=O)(=O)NC3CCCCC3)cc12)N1CCCC1,-5,0.72
O=C(CN1CCN(c2ccc(C3CC3)nn2)CC1)Nc1ccc2c(c1)OCCO2,3,-0.46
CCN(CC)CCOc1ccc(Cl)cc1Cl,-15,2.87
COc1ccc(C(=O)O)nc1-c1cccc(C(=O)N2C[C@@H](C)O[C@@H](C)C2)c1,7,-1.36
